# Source: PubChem BioAssay AID686978 (National Center for Advancing Translational Sciences (NCATS), 2013)
# Screen size: about 420,000 compounds; about 64,000 (15%) were called active. Inconclusive means that the source gave no clear call. Such entries were picked first, then a sample of the others. The call rests on the fitted dose curve; in most records, active means well fitted inhibition curve with a large enough effect; inconclusive means small, poorly fitted or top-dose-only effect; inactive means flat fitted curve, though single readings scatter. Potencies of inconclusive entries are left out as doubtful fits.
# Experiment: qHTS for Inhibitors of human tyrosyl-DNA phosphodiesterase 1 (TDP1): qHTS in cells in absence of CPT; further: nearly all actives have a fitted effect of over 55% in size
# Settings: DT40 Tdp1-/- hTDP1 cells, no CPT, ATP luminescence, 48 h; activity change, negative = growth inhibition: at 46.2 µM (top of the series) unless noted
# In short: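 Chicken DT40 Tdp1-/- cells stably complemented with human TDP1 were seeded at 400 cells/well with DMSO in place of 20 nM camptothecin. After compound pinning, cells grew at least 48 hr at 37 °C; viability read by CellTiter-Glo luminescence.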
# On the % scale 0 is the no-effect control and ±100 the full control effect; potency means the concentration at half of the fitted maximal effect; tags describe the fitted curve by direction and shape.
Structure (SMILES),Potency,"activity change, negative = growth inhibition"
Cc1ccc2oc(-c3ccc(C)c(NC(=O)COc4ccccc4C)c3)nc2c1,"inconclusive [inhibitor, partial curve, poor fit]",
Nc1nc(NCc2ccco2)nc(N2CCCCCC2)c1[N+](=O)[O-],active: 16.4 µM,
Cn1cc(-c2cc3n(n2)CCC(=O)N3CCCC(=O)Nc2ccc(F)cc2F)c2ccccc21,"inconclusive [inhibitor, single point]",
O=C(Cc1cccs1)Nc1ccccn1,inactive,
Cc1cc(CC(C)C)n(-c2nc3ccccc3c(=O)n2OCc2ccccc2)n1,"inconclusive [inhibitor, single point]",
CNC(=O)/C(C#N)=C/c1c(N2CCN(c3ccc(OC)cc3)CC2)nc2c(C)cccn2c1=O,"inconclusive [inhibitor, single point]",
CC(C)Cn1c(SCC(=O)Nc2ccc3[nH]c(=O)[nH]c3c2)nc2ccccc2c1=O,"inconclusive [inhibitor, single point]",
COc1ccc(-c2csc(N3CCN(C(=O)c4ccco4)CC3)n2)cc1,"inconclusive [inhibitor, single point]",
CCC1(c2ccc(F)cc2)NC(=O)N(CC(=O)Nc2ccc(C)c(S(=O)(=O)N3CCOCC3)c2)C1=O (stereo not drawn),inactive,
COc1cc(CNc2ncnc3c2ncn3[C@H]2CN(Cc3cccc(C(F)(F)F)c3)C[C@@H](COC(C)=O)O2)cc(OC)c1OC,"inconclusive [inhibitor, single point]",
O=C(Nc1ccc2c(c1)OCO2)C(=O)c1c[nH]c2ccccc12,inactive,
CCOC(=O)[C@]12CCCC=C1N(Cc1ccc3c(c1)OCO3)C(=O)[C@H](CC(=O)NCCCCc1ccccc1)C2,active: 20.6 µM,
CC[n+]1c(/C=C2\C=C(C)CC(C)(C)C2)sc2ccccc21,active: 2.31 µM,
O=S(=O)(NCCc1ccc(F)cc1)c1cccc2cccnc12,"inconclusive [inhibitor, partial curve]",
CC(C)[C@@H]1Cc2[nH][nH]c(=O)c2[C@H](C(C)C)O1,inactive,
COCCCNC(=S)NCCNc1nc2cc(C)cc(C)c2cc1C#N,"inconclusive [inhibitor, single point]",
COc1ccc(S(=O)(=O)NCc2ccc3c(c2)CCN3C(=O)c2ccc(C)cc2)cc1Cl,active: 16.4 µM,
CCOC(=O)C1CCN(C(=O)Cn2nc(C)n3c(cc4cc(C)ccc43)c2=O)CC1,"inconclusive [inhibitor, single point]",
CCc1nnc(NC(=O)c2oc3ccc(Br)cc3c2C)s1,"inconclusive [inhibitor, single point]",
COc1cc(-c2c(C#N)c(N)nc3c2CCCC3)ccc1O,active: 16.4 µM,
Cn1c(SCC(=O)Nc2cccc(S(=O)(=O)NC3=NCCCCC3)c2)nnc1-c1ccccc1,"inconclusive [inhibitor, single point]",
Cc1cc2nc(-c3ccc(Br)cc3)cc(C(F)(F)F)n2n1,inactive,
COc1ccc(-c2c(-c3ccc(OCC(=O)NN)cc3O)n[nH]c2C)cc1,"inconclusive [inhibitor, single point]",
N/C(=C\c1ccccc1)c1ccncc1,"inconclusive [inhibitor, single point]",
Cc1cc2c(cc1S(=O)(=O)CCC(=O)N1CC(C)CC(C)C1)OCC(=O)N2 (stereo not drawn),inactive,

Structure (SMILES),Potency,"activity change, negative = growth inhibition"
COCCNc1cc(-c2ccccc2CN(C)C)ncn1,inactive,
COc1ccc2c(ccc[n+]2CC(=O)c2ccc(C)cc2)c1,active: 14.6 µM,
O=C(c1cc(C2CC2)nn1-c1ccccc1)N1CCN(c2ccccn2)CC1,"inconclusive [inhibitor, single point]",
CCc1ccc(-c2cn3c(n2)sc2cc(C(=O)NCC(C)c4ccccc4)ccc23)cc1 (stereo not drawn),inactive,
CCOc1cc(N2CCOCC2)c(OCC)cc1NC(=O)[C@H](C)N1C(=O)C2CC=CCC2C1=O (stereo partly drawn),active: 11.6 µM,
O=C(CN1C(=O)C2C3CCC(C3)C2C1=O)N1CCN(Cc2ccccc2)CC1 (stereo not drawn),inactive,
CN1CCN(c2ncc3nc(CCc4ccccc4)c(=O)n(CCc4ccccc4)c3n2)CC1,"inconclusive [inhibitor, single point]",
COc1cccc(NC(=O)CN2C(=O)NC3(CCCC3)C2=O)c1,inactive,
COc1ccc(-c2c3c(=O)n(C)c(=O)n(C)c3cn2NC(C)=O)cc1,inactive,
O=C(Cc1ccsc1)NNC(=O)c1ccccc1O,"inconclusive [inhibitor, single point]",
CCOc1ccccc1C(C(=O)NC1CCCCC1)N(C(=O)c1csnn1)C1CC1 (stereo not drawn),"inconclusive [inhibitor, single point]",
CCCCn1cnc2c(Sc3c([N+](=O)[O-])ncn3C)nc(N)nc21,"inconclusive [inhibitor, single point]",
CC(C)CNC(=O)C1(C)CCCN1C(=O)Cc1cccc2ccccc12 (stereo not drawn),active: 8.2 µM,
COc1cc(CN2CCCC(C)C2)ccc1OCc1ccccc1 (stereo not drawn),"inconclusive [inhibitor, single point]",
Cc1ccc(C(=O)c2c[nH]c(C(=O)NCc3cccnc3)c2)cc1,"inconclusive [inhibitor, single point]",
CCOC(=O)/C(=N/Nc1ccccc1)c1csc(Nc2ccccc2)n1,"inconclusive [inhibitor, single point]",
Cn1nnnc1SCCNCc1ccccc1OCc1ccc(Cl)cc1,active: 16.4 µM,
CC(=O)N/N=C(/C)c1ccc(NC(=O)c2csc(C)c2C)cc1,inactive,
CCN(CC)CCCNC(=O)c1cn(CC)c2cc(N3CCN(C(=O)c4ccco4)CC3)c(F)cc2c1=O,inactive,
Cc1ccc(C(=O)N/C(=C\c2ccc([N+](=O)[O-])cc2)C(=O)NCCc2ccccc2)cc1,"inconclusive [inhibitor, full curve, poor fit]",
Fc1ccc2cnc(-c3ccccc3F)cc2c1,inactive,
COc1cc(NC(=O)c2ccc(-c3cn[nH]c3)c3ccoc23)cc(OC)c1OC,active: 13 µM,
CCCc1c(-c2ccccc2F)ncn1Cc1ccccc1OC,active: 1.16 µM,
O=C(Cn1cnc2c(nnn2-c2ccccc2)c1=O)NCCc1ccccc1,"inconclusive [inhibitor, single point]",
COc1cc(C(=O)OCC(=O)NC2CC2)ccc1OCCC(C)C,"inconclusive [inhibitor, single point]",

Structure (SMILES),Potency,"activity change, negative = growth inhibition"
CCc1ccc(N2CCn3c2nc2c3c(=O)n(Cc3c(F)cccc3Cl)c(=O)n2C)cc1,"inconclusive [inhibitor, single point]",
Cc1cc(C(=O)COC(=O)CNC(=O)c2ccco2)c(C)n1Cc1ccco1,"inconclusive [inhibitor, single point]",
O=C(N/N=C/c1cccnc1)c1ccc(NC(=O)c2ccccc2Cl)cc1,inactive,
CSc1ccccc1C(=O)N1CCc2ccc(NC(=O)c3ccccn3)cc2C1,active: 11.6 µM,
COc1ccc(/C=C2\SC(=O)N(CCNC(=O)CN3C(=O)NC4(CCCC4)C3=O)C2=O)cc1,"inconclusive [inhibitor, single point]",
COc1ccc2cc(CNCCOCCOCCNCc3ccc4cc(OC)ccc4c3)ccc2c1,active: 2.59 µM,
CCOC(=O)N1CCN(S(=O)(=O)N(C)C)CC1,inactive,
CCOc1ccccc1N=c1oc2cc(O)ccc2cc1C(=O)NCC1CCCO1 (stereo not drawn),"inconclusive [inhibitor, single point]",
CCOC(=O)C1CCCN(C(=O)c2cc(-c3ccccc3)cs2)CC1 (stereo not drawn),"inconclusive [inhibitor, single point]",
CCc1ccc(NS(=O)(=O)c2ccc(C(=O)N(C)C)s2)cc1,active: 14.6 µM,
O=S(=O)(c1ccccc1)N1CCN=C1SCc1c(F)cccc1Cl,"inconclusive [inhibitor, single point]",
O=C1C2C3C=CC(CNS(=O)(=O)c4ccccc4)(O3)C2C(=O)N1c1ccc(Cl)cc1 (stereo not drawn),"inconclusive [inhibitor, single point]",
CS(=O)(=O)N(CC(=O)N1CCc2ccccc2C1)c1ccc(Cl)cc1F,inactive,
O=C(Nc1ccc(Cl)cc1)OCc1cc(-c2ccccc2)on1,"inconclusive [inhibitor, single point]",
O=C(Nc1ccc(F)c(Cl)c1)c1cc(C2CCCN(C(=O)C3CC3)C2)on1 (stereo not drawn),"inconclusive [inhibitor, single point]",
O=C(C1CC1)N1CCc2cc(Br)cc(S(=O)(=O)N3CCN(c4ccccc4)CC3)c21,inactive,
O=C(NCCOc1ccc(F)cc1)C1CCC(=O)N(CC2CCCCC2)C1 (stereo not drawn),"inconclusive [inhibitor, single point]",
COc1cc(/C=C/C(=O)c2ccc(O)cc2)ccc1OCC#N,active: 10.3 µM,
Cc1ccc2[nH]c(O)c(N=NC(=O)C3CC3c3ccccc3)c2c1Br (stereo not drawn),active: 23.1 µM,
CCCCC/C=C\C/C=C\CCCCCCCC(N)=O,,inactive: -5.05% [at 4.12 µM]
CC1=NN(c2ccc(Cl)cc2)C(=O)C1C(c1ccccc1O)c1c(C)[nH]n(-c2ccc(Cl)cc2)c1=O (stereo not drawn),"inconclusive [inhibitor, single point]",
COc1ccc(N2CCN(C(=O)c3ccccc3NS(=O)(=O)c3ccc(C)cc3)CC2)cc1,inactive,
O=C(c1cccc(S(=O)(=O)N2CCCCC2)c1)N1CCc2ccccc21,"inconclusive [inhibitor, single point]",
